Data published in the RNAGym collection of RNA variant scans (doi:10.1073/pnas.2313332121).
This sample is rich in variants without activity.

B1: TPR 5TU (parent)
chain: GGAUCUUCUCGAUCUAACAAAAAAGACAAAUCUGCCACAAAGCUUGAGAGCAUCUUCGGAUGCAGAGGCGGCAGCCUUCGGUGGCGCGAUAGCGCCAACGUUCUCAACUAUGACACGCAAAACGCGUGCUCCGUUGAAUGGAGUUUAUCAUG

Variants of: B1
Experiment: polymerase ribozyme fitness, log enrichment relative to wild type (log ratio); higher = more active; in vitro selection for triplet polymerase activity
Summary of the method: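 The heterodimeric triplet polymerase ribozyme's subunits were each mutagenized into PCR-built libraries and transcribed. Every library was selected once, in triplicate, by annealing with a biotinylated primer, the partner subunit and triplets, incubating frozen at −7 °C, gel-excising extended constructs, capturing on streptavidin beads and running RT-PCR. Input and output libraries were Illumina-sequenced, with genotypes kept only at ≥10 input reads and ≥1 read per output. Fitness, from inverse-variance-weighted replicate averages, is the base-2 logarithm of genotype enrichment over wild-type enrichment.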

Polymerase ribozyme fitness (log ratio), -4.16:
GGAUCUUCUCGAUCUAACAAAAAAGACAAAUCUGCCAGAAAGCUUGAGAGCAUCUUCGGAUGCAGAGGCGGCAGUCUUCGGUGGCGCGAUAGGGCCAACGUUCUCAACUAUGACACGCAAAACGCGUGCUCCGUUGAAUGGAGUUUAUCAUG [C38G C75U C93G]

Polymerase ribozyme fitness (log ratio), ≤ -4.2:
GGAUCUUCUCGAUCUAACAAAAAAGACAAAUCUGCCAUAAAGCUUGAGAGCAUCUUCGGGUGCAGAGGCGGAAGCCUUCGGUGGCGCGAUGGCGCCAACGUUCUCAACUAUGACACGCAAAAUGCGUGCUCCGUUGAAUGGAGUUUAUCAUG [C38U A60G C72A A91G C123U]
GGAUCUUCUCGAUCUAACAAAAAAGACAAAUCUGCCAUAAAGCUUGAGAGCAUCUUCGGAUGCAGAGGCGGCAGCCUUCGGUGGGGCGAUAGUGCCAACGUUCUCAACUAUGACACUCAAAACGCGUCCUCCGUUGAAUGGAGUUUAUCAUG [C38U C85G C93U G117U G128C]
GGAUCUUCUCGAUCUAACAAAAAAGACAAAUCUGCCAGAAAGCUUGAGAGCAUCUUCGGAUGCAGAGGCCGCAGCCUUCGGUGGCGCGAUAGCGCCAACGUUCUCAACUAUGACACGCAAAACGGGUGCUCCGUUGAAUAGAGUUUAUCAUG [C38G G70C C125G G140A]
GGAUCUUCUCGAUCUAACAAAAAAGACAAAUCUGCCAGAAAGCUUGAGAGCAUCUACGGAUGCGGAGGCGGCAGCCUUCGGUGGCGCGAUGGCGCCAACGUUCUCAACUAUGACACGCAAAACGCGUGCUCCGUUGAAUGGAGUUUAUCGUG [C38G U56A A64G A91G A150G]
GGAUCUUCUCGAUCUAACAAAAAAGACAAAUCUGCCAGAAAGCUUGAGAGCAUCUACGGAUGCAGAGGCGGCACCCUUCGGUGGCGCGAGAGCGCCAACGUUCUCAACUAUGACACGCAAAACGUGUGCUCCGUUGAAUGGAGUUUAUCAUG [C38G U56A G74C U90G C125U]
GGAUCUUCUCGAUCUAACAAAAAAGACAAAUCUGCCAUAAAGCUUGAGAGCAUCUUCGGAUGCAGAGGCGGCUGCCUUCGGUGGCGAGAUAGCGCCAACGUUCUCAACUAUGACACGUAAAACGCGUGCUCCGUUGAAUGGAGUUUAUCAUG [C38U A73U C87A C118U]
GGAUCUUCUCGAUCUAACAAAAAAGACAAAUCUGCCAGAAAGCUUGAGAGCAUCUUCGAAUGCAGAGGCGGCAGCCUUCGGUGGCGCGAUAGCGCCAACGUUCUCAACUAUGACACGCAAAACGCGAGCUCCGUUGAAAGGAGUUUAUCAUG [C38G G59A U127A U139A]
GGAUCUUCUCGAUCUAACAAAAAAGACAAAUCUGCCAGAAAGCUUGAGAGCAUCUUCGGAUGCAGAGGCGGCAUCCUUCGGUGGCGCGAUAGCGCCAACGUUCUCAACUAUGACACGCAAAACGCGUGCUCCGUUGAAUGGAGUUUAUCAUG [C38G G74U]
GGAUCUUCUCGAUCUAACAAAAAAGACAAAUCUGCCAUAAAGCUUGAGAGCAUCUUUGGAUGCAGAGGCGGCAGCCUUCGGUGGCGCGAUGGCGCCAACGUUCUCAACUAUGACACGCAAAACGCGGGCUCCGUUGAAUGGAAUUUAUCAUG [C38U C57U A91G U127G G143A]
GGAUCUUCUCGAUCUAACAAAAAAGACAAAUCUGCCAUAAAGCUUGAGAGCAUCUUCGGAUGCAGAGGCGGCAGCCUUAGGGGGCGCGAUAGCGCCAACGUUCUGAACUAUGACACGCAAAACGCGUGCUCCGUUGACUAGAGUUUAUCAUG [C38U C79A U82G C105G A138C G140A]
GGAUCUUCUCGAUCUAACAAAAAAGACAAAUCUGCCAGAAAGCUUGAGAGCAUCUGCGGAUGCAGAGGCGGAAGCCUUCGGUGGCGCGAUUGCGCCAACGUUCUCACCUAUGACACACAAAACGCGUGCUCCGUUGAAUGGAGUUUAACAUG [C38G U56G C72A A91U A107C G117A U148A]
GGAUCUUCUCGAUCUAACAAAAAAGACAAAUCUGCCAGAAAGCUUGAGAGCAUCUUCGGAUGCAGAGGCGGCAGGCUUCGGUCGCGCGAUAGCGCCAACGUUCUUAACUAUGACACGCAAAACGCGUGCUCCGUUGAGUGUAGUUUAUCAUG [C38G C75G G83C C105U A138G G141U]
GGAUCUUCUCGAUCUAACAAAAAAGACAAAUCUGCCAUAAAGCUUGAGAGCAUCUUCGGAUGCAGCGGCGGUAGCCUUAGGUGGCGCGAUAGCGCAAACGUUCUCAACUAUGACACACAAAACGCGUGCUCCGUUGAAUGGAGUUUAUCAUG [C38U A66C C72U C79A C96A G117A]
GGAUCUUCUCGAUCUAACAAAAAAGACAAAUCUGCCAUAAAGCUUGAGCGCAUCUUCGGAUGCAGAGGCGGCAGCCUUCGGUGGCGCGAUAGCGCCAACGUUCUCAACUAUGACACGCAAAACGCGUGCUCCGUUGAAUGGAGUUUAUCAUG [C38U A49C]

Polymerase ribozyme fitness (log ratio), 1.52:
GGAUCUUCUCGAUCUAACAAAAAAGACAAAUCUGCCAUAAGGCUUGAGAGCAUCUUCAGAUGCAGAGGCGGCAGCCUUCGGUGGCGCGAUAGCGCCAACGUUCUCAACUAUGACACGCAAAACGCGUGCUCCGUUGAAUGGAGUUUAUCAUG [C38U A41G G58A]

Polymerase ribozyme fitness (log ratio), -0.0326:
GGAUCUUCUCGAUCUAACAAAAAAGACAAAUCUGCCAUAAAGCUUGAGAGCAUCUUCGGAUGCAGAGGCGGCAGCCUUCGGUGGAGCGAUAGCGCCAACGUUCUCAACUAUGACACCCAAAACGCGUGCUCCGUUGAAUGGAGUUUAUCAUG [C38U C85A G117C]

Polymerase ribozyme fitness (log ratio), -0.54:
GGAUCUUCUCGAUCUAACAAAAAAGACAAAUCUGCCAUAAAGCUUGAGAGCAUCUUCGGAUGCAGAGGCGGCAGCCUUCGGUGGCGCGAUAGCGCCAACGUUCUCAACUAUGACACGCAUAACGCGUGCUCCGUUGAAUGGAGUUUAUCAUG [C38U A120U]

Polymerase ribozyme fitness (log ratio), -3.7:
GGAUCUUCUCGAUCUAACAAAAAAGACAAAUCUGCCAUAAAGCUUGAGAGCAUCUUCGGAUGCAGAGGCGGCAGCCUUCGGUGGCGCGAUAGCGCCAACGUUCUCAACUUUGACACGCAAAACGCGUGCUCCGUUGAAUGGAGUUUAUCAUG [C38U A110U]
